# Publication PMC12515711
# Chains of the proteins cited; added tags and fusions are not shown.
# UniProt Q9DBC7: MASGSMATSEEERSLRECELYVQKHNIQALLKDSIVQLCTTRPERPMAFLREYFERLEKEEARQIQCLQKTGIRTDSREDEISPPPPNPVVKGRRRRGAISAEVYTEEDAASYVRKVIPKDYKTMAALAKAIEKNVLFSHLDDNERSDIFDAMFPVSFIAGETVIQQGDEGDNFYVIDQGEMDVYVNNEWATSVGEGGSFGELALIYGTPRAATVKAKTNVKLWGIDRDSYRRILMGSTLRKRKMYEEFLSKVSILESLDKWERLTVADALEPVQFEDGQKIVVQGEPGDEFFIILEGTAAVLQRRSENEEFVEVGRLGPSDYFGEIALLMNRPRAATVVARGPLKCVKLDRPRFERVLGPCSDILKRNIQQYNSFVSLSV
# UniProt G3X8Y1: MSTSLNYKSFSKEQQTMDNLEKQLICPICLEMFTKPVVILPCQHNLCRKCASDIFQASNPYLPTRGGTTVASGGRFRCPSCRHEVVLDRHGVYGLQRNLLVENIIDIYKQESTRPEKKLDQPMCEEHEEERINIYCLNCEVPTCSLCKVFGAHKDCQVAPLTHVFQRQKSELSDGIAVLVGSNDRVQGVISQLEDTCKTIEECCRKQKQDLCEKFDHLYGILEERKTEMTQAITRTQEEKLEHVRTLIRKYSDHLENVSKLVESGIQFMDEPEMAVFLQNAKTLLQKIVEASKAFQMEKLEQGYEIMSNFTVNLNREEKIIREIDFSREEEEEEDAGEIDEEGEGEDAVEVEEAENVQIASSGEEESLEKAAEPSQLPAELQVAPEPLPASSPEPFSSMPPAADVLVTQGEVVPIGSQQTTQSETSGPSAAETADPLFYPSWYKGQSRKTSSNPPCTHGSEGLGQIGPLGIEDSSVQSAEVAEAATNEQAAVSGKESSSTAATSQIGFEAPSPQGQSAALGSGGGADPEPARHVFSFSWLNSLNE
# Results are given in words; binding and its absence hold for the method and conditions named. Binding seen in cells or lysates may run through a third protein. Some entries that bind do so weakly or less than the wild type. Where a sequence is shown, tags or fusion partners need not be part of it.
# T1: SNX5-Myc (His)6 (in C2C12) (UniProt Q9D8U8)
# T1 sequence: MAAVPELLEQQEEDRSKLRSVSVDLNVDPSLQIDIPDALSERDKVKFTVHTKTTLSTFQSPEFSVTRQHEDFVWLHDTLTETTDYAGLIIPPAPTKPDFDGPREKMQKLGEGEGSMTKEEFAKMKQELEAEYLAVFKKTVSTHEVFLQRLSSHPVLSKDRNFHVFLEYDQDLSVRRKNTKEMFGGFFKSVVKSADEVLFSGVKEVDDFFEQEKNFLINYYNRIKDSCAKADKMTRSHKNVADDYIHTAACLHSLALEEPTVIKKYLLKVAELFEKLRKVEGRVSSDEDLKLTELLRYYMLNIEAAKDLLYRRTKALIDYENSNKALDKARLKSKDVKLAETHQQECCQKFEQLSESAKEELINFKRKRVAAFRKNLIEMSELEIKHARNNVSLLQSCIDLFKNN
# T2: SNX5-FLAG (in COS-7) (UniProt Q9D8U8)
# T2 sequence: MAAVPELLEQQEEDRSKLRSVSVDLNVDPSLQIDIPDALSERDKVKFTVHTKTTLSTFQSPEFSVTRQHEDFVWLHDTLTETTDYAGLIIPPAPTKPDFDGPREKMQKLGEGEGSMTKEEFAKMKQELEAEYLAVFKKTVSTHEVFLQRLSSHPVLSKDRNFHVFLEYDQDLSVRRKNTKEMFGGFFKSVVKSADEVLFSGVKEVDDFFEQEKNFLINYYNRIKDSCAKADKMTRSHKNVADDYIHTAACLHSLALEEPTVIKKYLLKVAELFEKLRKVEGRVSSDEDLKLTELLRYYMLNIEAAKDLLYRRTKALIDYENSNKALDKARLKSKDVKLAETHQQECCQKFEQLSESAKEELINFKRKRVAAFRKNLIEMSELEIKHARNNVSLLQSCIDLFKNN
# T3: SNX5-BAR-FLAG (in HEK293) (UniProt Q9D8U8)
# T3 sequence: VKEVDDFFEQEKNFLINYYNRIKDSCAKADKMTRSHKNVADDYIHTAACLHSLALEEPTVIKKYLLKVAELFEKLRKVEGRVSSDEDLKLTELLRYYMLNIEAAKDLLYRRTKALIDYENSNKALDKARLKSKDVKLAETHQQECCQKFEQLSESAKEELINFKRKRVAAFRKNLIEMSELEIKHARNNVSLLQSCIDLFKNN
# T4: SNX5-FLAG (in HEK293) (UniProt Q9D8U8)
# T4 sequence: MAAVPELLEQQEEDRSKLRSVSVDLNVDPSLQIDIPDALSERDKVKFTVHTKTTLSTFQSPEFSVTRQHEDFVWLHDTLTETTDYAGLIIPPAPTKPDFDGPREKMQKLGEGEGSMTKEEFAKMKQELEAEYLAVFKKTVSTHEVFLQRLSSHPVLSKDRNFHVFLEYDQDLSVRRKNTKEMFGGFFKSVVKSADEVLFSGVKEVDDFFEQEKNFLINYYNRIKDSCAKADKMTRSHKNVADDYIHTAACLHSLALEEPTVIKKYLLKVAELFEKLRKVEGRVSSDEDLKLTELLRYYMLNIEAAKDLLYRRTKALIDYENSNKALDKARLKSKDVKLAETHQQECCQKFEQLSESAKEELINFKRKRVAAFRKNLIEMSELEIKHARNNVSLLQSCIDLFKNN
# T5: SNX5-PX-FLAG (in HEK293) (UniProt Q9D8U8)
# T5 sequence: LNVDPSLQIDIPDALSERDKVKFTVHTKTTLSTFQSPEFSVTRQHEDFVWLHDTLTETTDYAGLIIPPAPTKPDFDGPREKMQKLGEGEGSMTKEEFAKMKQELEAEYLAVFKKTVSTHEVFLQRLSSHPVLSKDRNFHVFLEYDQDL
# Columns and labels:
# [1] = target: T1, SNX5-Myc (His)6 (in C2C12); test: co-IP; C2C12 cells transduced with SNX5-Myc (His)6 or eGFP control vector; Nickel-NTA IP; western blot for Myc and RI-α
# [2] = target: T2, SNX5-FLAG (in COS-7); test: co-IP; lysates of transfected COS-7 cells; immunoprecipitated with anti-FLAG M2 agarose; western blot for Myc and FLAG
# [3] = target: T3, SNX5-BAR-FLAG (in HEK293); test: co-IP; lysates of co-transfected HEK293 cells; immunoprecipitated with anti-FLAG M2 agarose; western blot for Myc and FLAG
# [4] = target: T4, SNX5-FLAG (in HEK293); test: as above
# [5] = target: T5, SNX5-PX-FLAG (in HEK293); test: as above
molecule,measurement,setting,value
RI-α (cAMP-dependent protein kinase type I alpha regulatory subunit) (from UniProt Q9DBC7 1-381),binding,[1],binds
MuRF2-Myc (His)6 (in COS-7) (from UniProt G3X8Y1 1-545),binding,[2],binds
"MuRF3-Myc (His)6 (in HEK293) (protein, UniProt Q9ERP3 1-366) MNFTVGFKPLLGDAHNMDNLEKQLICPICLEMFSKPVVILPCQHNLCRKCANDVFQASNPLWQSRGSTTVSSGGRFRCPSCRHEVVLDRHGVYGLQRNLLVENIIDIYKQESSRPLHAKAEQHLMCEEHEDEKINIYCLSCEVPTCSLCKVFGAHKDCEVAPLPTIYKRQKSELSDGIAMLVAGNDRVQAVITQMEEVCQTIEDNSRRQKQLLNQRFETLCAVLEERKGELLQALAREQEEKLQRVRGLIRQYGDHLEGSSKLVESAIQSMEEPQMALYLQQAKELINKVGAMSKVELAGRPEPGYESMEQFSVSVEHVAEMLRTIDFQPGAAGDEEDDDMALDGEEGNAGLEEERLDVPEGSGLH",binding,[3],binds
same,binding,[4],binds
same,binding,[5],no binding
